Data on 85 molecules can be found in PubChem BioAssay AID1346428 (National Center for Advancing Translational Sciences (NCATS), 2018).

The campaign covered roughly 48,000 compounds. About 1,200 (2.5%) were called active. Inconclusive results (about 2%) are left out.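 Rule for the calls: active = activation of at least 60% and not above a set upper limit (about 1 call in 100 departs from these limits); inconclusive = activation of 40% to 60%, or above that upper limit; inactive = activation under 40%.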 The list shows a part of the results.

UniProt O75388, sequence (O75388 whole entry, looked up): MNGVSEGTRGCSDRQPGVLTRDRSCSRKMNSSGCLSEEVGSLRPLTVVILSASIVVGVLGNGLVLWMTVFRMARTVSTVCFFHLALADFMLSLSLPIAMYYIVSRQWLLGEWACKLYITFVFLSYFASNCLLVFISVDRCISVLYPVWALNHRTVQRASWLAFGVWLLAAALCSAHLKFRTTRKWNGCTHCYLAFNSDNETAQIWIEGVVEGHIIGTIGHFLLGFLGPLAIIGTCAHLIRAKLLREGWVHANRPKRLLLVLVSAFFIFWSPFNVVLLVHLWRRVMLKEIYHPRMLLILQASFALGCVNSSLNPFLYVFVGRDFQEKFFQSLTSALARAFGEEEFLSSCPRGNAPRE

In the assay the target is Probable G-protein coupled receptor 32 (Homo sapiens) (UniProt O75388). Put plainly: qHTS for Agonists of Human Resolvin D1 Receptor DRV1. Note: 0% is about no effect. As to conditions: CHO-K1 GPR32 beta-arrestin PathHunter luminescence, 90 min; at 76.9 µM; active compounds read high; zero percent set by DMSO-only wells. In outline:
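Step 1: seed CHO-K1 GPR32 beta-arrestin cells, 2,500/well, overnight at 37 °C. Step 2: add compounds, 90 min at 37 °C. Step 3: detection reagent, 1 h ambient, then luminescence.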
In general terms: In qHTS, concentration-response curves come from the screen itself.
Consider `CCC(=O)N1c2nc(C(C)C)nn2C2(CCCCC2)[C@@H]2CCCC[C@@H]21`, for which the activation was inactive: -11%. Next, `Cc1cc(C)cc(NC(=O)Cn2nnc(C(=O)NCc3ccco3)c2N)c1`: inactive: 28.1%; `O=C(CN1C(=O)COc2ccc(S(=O)(=O)N3CCCCCC3)cc21)N1CCN(c2ccccc2)CC1`: inactive: -11.6%; `COc1ccc(Cl)cc1NC(=O)C(C)N1Cc2ccccc2C1=O` (stereo not given): inactive: -10.5%. Then `COc1ccc(NC(=O)CN2CCN(S(=O)(=O)c3ccc(Br)cc3)CC2)cc1`, with inactive: -29.5%. As for `CCOC(=O)c1cccc(NC(=O)C2CCN(c3nnc(C)c4c(C)n(-c5ccccc5)nc34)CC2)c1`, the activation was inactive: 7.9%. With `COCCNC(=O)Cn1c(=O)n(-c2ccc(C)c(C)c2)c(=O)c2c3c(sc21)CCCCC3`, the activation was inactive: -8.15%. Then `O=C(NNc1ncnc2c1cnn2-c1ccccc1)c1ccccc1`, with inactive: -23.7%; and `COc1ccc(NCc2cccn2-c2nnc(N3CCOCC3)s2)c(OC)c1`, with inactive: 23.8%; and `CCOc1cc(CNC(=O)C(NS(=O)(=O)c2cccs2)C(C)C)cc(OCC)c1OCC` (stereo not given), with inactive: -3.98%. Then `O=C(Cn1c(SCc2cccc(F)c2)nc2ccncc21)Nc1ccc(Cl)cc1F`, with inactive: 0.748%. Take `COc1ccc(N2CCN(S(=O)(=O)CCNC(=O)Cc3ccc(-c4ccccc4)cc3)CC2)cc1`: the activation is inactive: -14.9%. In the case of `CCCc1oc2ccc(NS(=O)(=O)c3ccc(OC)cc3)cc2c1C(=O)OCC`, the activation was inactive: -16.9%.

With `COc1ccc(C(=O)Nc2ccc3nc(N4CCCCC4)cc(C)c3c2)c(OC)c1`, the activation is inactive: 3.22%. Then `CCOC(=O)c1c(NC(C)=O)c2c3c(sc2n1Cc1cccc(Cl)c1)CCCC3`, with inactive: -28.8%; and `Cc1ccc(C(CC(=O)Nc2ccc(C)cc2C)N2Cc3ccccc3C2=O)cc1` (stereo not given), with inactive: -4.35%; and `CCOc1ccccc1CNC(=O)c1cccc(NC(=O)c2nsc3ccccc23)c1`, with inactive: -10.3%.

Consider `Cc1ccc(-n2c(=O)c3sccc3n(Cc3cc(=O)n4ccccc4n3)c2=O)cc1`, for which the activation is inactive: -10.2%. Then `COc1ccc(C(=O)N2CCC(C(=O)Nc3ccc(OC)cc3OC)CC2)cc1`, with inactive: 11.5%; and `CCN(C(=O)Cn1nc(Cc2cccnc2)c2ccccc2c1=O)c1cc(C)ccc1C`, with inactive: -44.1%. Then `Cc1ccccc1C(=O)Nc1nnc(S(=O)(=O)N2CCCc3ccccc32)s1`, with inactive: 16.3%. Next, `Cc1cccc(-c2cc(NC(=O)COc3ccccc3F)n(-c3ccccc3)n2)c1`: inactive: -7.42%; `Cc1nnsc1C(=O)Oc1ccccc1Cl`: inactive: 5.01%. `O=C1C(c2ccc(C(F)(F)F)cc2)=C(Nc2ccc(Cl)cc2)c2ccccc21`: the activation was inactive: -14.4%. Then `Cc1ccc(NC(=O)CSc2nnc(-c3cc4occc4n3C)n2-c2ccccc2C)cc1F`, with inactive: -26.2%.

Regarding `CCn1c(C(=O)Nc2cc(C)cc(C)c2)cc2sc(Cl)cc21`, the activation is inactive: -1.87%. Next, `COc1ccc(C(=O)N=c2sc3cc(Cl)ccc3n2C)cc1`: inactive: 9.77%; `Cc1ccc(-c2cn3c4c(=O)n(C)c(=O)n(C)c4nc3n2-c2cccc(Cl)c2)cc1`: inactive: -0.72%. In the case of `CSc1ccccc1NC(=O)CCS(=O)(=O)c1nc(-c2cccs2)cc(C(F)(F)F)n1`, the activation is inactive: -10.8%. Next, `CCN(CC)CCOC(=O)c1ccc(NC(=O)CCn2c(=O)oc3ccccc32)cc1`: inactive: 11.1%. Next, `N#Cc1ccccc1NC(=O)C(=O)NCC(c1cccnc1)N1CCc2ccccc2C1` (stereo not given): inactive: -18.8%. Next, `CN1[C@@H]2CC[C@H]1CC(OC(=O)c1c[nH]c3ccccc13)C2` (stereo not given in full): inactive: -18.8%. Turning to `CCCCN(C)c1ncnc2c1cnn2-c1cccc(Cl)c1`, the activation is inactive: -9.01%. Regarding `COc1ccc(OC)c(CCNC(=O)C(C)n2nc(C)c3c(C)n(-c4ccc(C)cc4)nc3c2=O)c1` (stereo not given), the activation is inactive: 8.51%. Turning to `CCOc1ccccc1NC(=O)C1CCCN(S(=O)(=O)c2ccc3c(c2)CCCN3C(C)=O)C1` (stereo not given), the activation is inactive: 0.717%. Next, `CCC(=O)N1CCc2cc(S(=O)(=O)NCCC(=O)Nc3cccc(C)c3C)ccc21`: inactive: -2.73%. Next, `Cc1cc(SCC(=O)NCc2ccccc2)nc(=O)[nH]1`: inactive: -7.64%; `COc1cccc(CNc2ccc3c(c2)ncn3C)c1OC`: inactive: 11.7%. Next, `O=C(NCc1ccccc1Br)c1ccc(-n2cnc3cccnc32)cc1`: inactive: -22.7%; `COc1ccc(N(CC(=O)Nc2ccc(Cl)cc2C)S(=O)(=O)c2ccccc2)c(OC)c1`: inactive: -8.03%; `COc1cc(-c2nnc(SCC(=O)N3CCCc4ccccc43)o2)cc(OC)c1OC`: inactive: 7.43%.

`CCc1ccc(S(=O)(=O)c2nnn3c2nc(Nc2cccc(C)c2C)c2sccc23)cc1`: the activation was inactive: -5.55%. Next, `CCOc1ccc(C2C(=O)N(C3CCCCCC3)CC(=O)N2Cc2ccc(C)cc2)cc1OC` (stereo not given): inactive: -42.4%. Regarding `COc1ccc(CCNC(=O)c2cc3c(=O)n4cccc(C)c4nc3n2C)cc1`, the activation was inactive: -14.9%.

As for `Cc1ccc(-c2csc(-c3c(N)c(C(=O)c4ccc5c(c4)OCO5)n4ccccc34)n2)cc1C`, the activation is inactive: 1.06%. As to `Cc1cccc(N(CC(=O)NCCc2ccccc2)S(=O)(=O)c2ccccc2)c1C`, the activation was inactive: 1.24%. Next, `COc1ccc(C(=O)c2ccccc2)c(O)c1`: inactive: 0.233%; `COc1ccc2c(C)c(CCC(=O)NCc3cccc(Cl)c3)c(=O)oc2c1`: inactive: 0.14%. With `Cc1cccc(CSCCNC(=O)C2CCN(S(=O)(=O)Cc3ccccc3)CC2)c1`, the activation was inactive: -0.039%. Turning to `CCC(CC)C(=O)Nc1nnc(S(=O)(=O)N(C)c2cc(C)cc(C)c2)s1`, the activation is inactive: -2.94%.

Regarding `COc1c(N2C[C@@H]3CCCN[C@@H]3C2)c(F)cc2c(=O)c(C(=O)O)cn(C3CC3)c12`, the activation was inactive: -34.3%. For the molecule `COc1ccc(NC(=O)CC2Oc3ccc(C)cc3NC2=O)cc1Cl` (stereo not given), the activation was inactive: 2.78%. Regarding `Cc1cc(C)cc(-n2ccn(CC(=O)NCCc3ccccc3)c(=O)c2=O)c1`, the activation was inactive: -10.3%. Then `COc1cc2c(cc1OC)C(COc1ccc3c(C)cc(=O)oc3c1)N(C(=O)Cc1ccc(F)cc1)CC2` (stereo not given), with inactive: -1.76%; and `CCOc1ccc(N(CC(=O)NCc2ccc(OC)cc2)S(=O)(=O)c2c(C)[nH]c(=O)[nH]c2=O)cc1`, with inactive: -8.99%; and `CCOC(=O)c1c(NC(C)=O)c2c3c(sc2n1Cc1c(C)cc(C)cc1C)CCCC3`, with inactive: -27.2%. For `COc1ccc(Cn2ccnc2SCC(=O)Nc2ccc3c(c2)OCCO3)cc1`, the activation was inactive: -12.4%. Then `Cc1ccc2c(c1)N(CC(=O)Nc1ccccc1C(F)(F)F)C(=O)c1cccnc1O2`, with inactive: -24.2%. Next, `COc1cccc(C(=O)N(Cc2cccc(F)c2)C2CCS(=O)(=O)C2)c1` (stereo not given): inactive: -4.7%. For the molecule `Cc1c(Cl)cccc1NC(=O)c1oc2ccc(S(=O)(=O)N3CCCCCC3)cc2c1C`, the activation is inactive: -4.94%. Next, `COc1cccc(OC)c1C(=O)Nc1ccc(-c2nc3ncccc3o2)cc1`: inactive: 10.2%. Then `O=C(Nc1cccc(F)c1)c1ccc2oc(=O)n(Cc3ccccc3)c2c1`, with inactive: 18.7%.

`CCOC(=O)c1cc2c(=O)n3ccccc3nc2n(Cc2ccco2)c1=NC(=O)c1ccc(C(C)(C)C)cc1`: the activation is inactive: -15%. Next, `COc1ccc(CCCc2nnc(SCC(=O)Nc3cc(F)ccc3C)o2)cc1`: inactive: 37.2%; `COc1ccc(Cn2c(C(=O)O)c(CNCc3ccc(OC)cc3OC)c3ccc(C)cc32)cc1`: inactive: 4.42%.

Consider `COc1ccc(NC(=O)CSCc2cc(=O)c3cc(C)ccc3[nH]2)cc1`, for which the activation was inactive: 4.06%. Then `Fc1ccc(CNCCCSc2nnnn2-c2ccccc2)cc1`, with inactive: -24.4%. For the molecule `COc1ncnc(NS(=O)(=O)c2ccc(N)cc2)c1OC`, the activation was inactive: -7.79%.

With `CC(=O)OCC(=O)[C@@]1(O)[C@H](C)C[C@H]2[C@@H]3CCC4=CC(=O)C=C[C@]4(C)[C@@]3(F)[C@@H](O)C[C@@]21C`, the activation is inactive: 3.52%. Next, `CN(C(=O)CSc1nc2ccc(NC(=O)c3cccc(F)c3)cc2s1)c1ccccc1`: inactive: 20.2%. Next, `CCOc1ccc(CNC(=O)c2ccc3c(Cl)c4c(nc3c2)CCCC4)cc1`: inactive: -1.01%; `COc1cc(Cl)c(C)cc1NC(=O)CC1Oc2ccccc2NC1=O` (stereo not given): inactive: -0.993%; `O=C(Oc1ccccc1)c1ccccc1O`: inactive: 2.59%. Next, `CCC(C(=O)O)c1ccc(N2Cc3ccccc3C2=O)cc1` (stereo not given): inactive: 16%; `CCNC(=O)CCCN1C(=O)CCn2nc(-c3cccn3C)cc21`: inactive: -12.8%; `COc1ccc(NC(=O)c2c(NCc3ccc(C)o3)sc3c2CCCCC3)c(OC)c1`: inactive: -11.9%. With `COc1ccc(C(=O)Nc2ccc(-c3nc4ncccc4o3)cc2C)cc1Br`, the activation is inactive: 11%.

As for `CCn1c(=O)c2cc(C(=O)Nc3cccc(C(F)(F)F)c3)sc2c2ccccc21`, the activation is inactive: -8.16%. Next, `CCC(Sc1nc2nccnc2c(=O)n1Cc1ccccc1Cl)C(=O)NC1CCCCC1` (stereo not given): inactive: -50.5%; `O=S(=O)(c1ccc(C2CCCCC2)cc1)N1CCN(c2cc(Cl)ccc2Cl)CC1`: inactive: -7.47%.

`COc1ccc(-n2c(/C=C/c3cccc4ccccc34)nc3ccccc3c2=O)cc1OC`: the activation was inactive: -11.1%.

As for `Cc1ccc2nc(NCc3ccccc3)c3nncn3c2c1`, the activation is inactive: -2.97%.

As for `CCn1cc(C(=O)NCCc2ccc(Cl)cc2)c(=O)c2cc(S(=O)(=O)N(C)C3CCCCC3)ccc21`, the activation was inactive: -0.295%. Take `Cc1ccc(CNC(=O)CSCc2ccccc2C)cc1`: the activation was inactive: -14.4%.

Regarding `COc1ccc(CCNC(=O)c2ccc3c(c2)CCN3S(=O)(=O)c2ccccc2)cc1`, the activation is inactive: -8.59%.
